From article PMC5062570 (Nature Communications, 2016)
“And” between values parts separate entries of the source, which are not always exact repeats. Equal entries are not always repeated.

Columns and labels:
[1] = molecular target: PF-7802-labelled proteins in ARPE-19 cells (Homo sapiens, UniProt O75643); conditions: SNRNP200 U5 small nuclear ribonucleoprotein 200 kDa helicase (O75643)
[2] = molecular target: PF-7802-labelled proteins in ARPE-19 cells (Homo sapiens, UniProt P05141); conditions: SLC25A5 ADP/ATP translocase 2 (P05141)
Chain of UniProt P05141 (P05141 whole entry): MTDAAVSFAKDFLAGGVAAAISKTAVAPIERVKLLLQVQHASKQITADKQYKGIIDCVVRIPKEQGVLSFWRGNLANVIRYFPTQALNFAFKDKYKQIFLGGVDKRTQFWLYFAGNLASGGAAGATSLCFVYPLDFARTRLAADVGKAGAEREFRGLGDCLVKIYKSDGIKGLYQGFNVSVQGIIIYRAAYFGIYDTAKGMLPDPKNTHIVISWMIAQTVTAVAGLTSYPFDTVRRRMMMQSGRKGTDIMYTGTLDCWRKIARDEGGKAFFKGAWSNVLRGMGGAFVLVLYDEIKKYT

[3] = molecular target: PF-7802-labelled proteins in ARPE-19 cells (Homo sapiens, UniProt P06576)
[4] = molecular target: PF-7802-labelled proteins in ARPE-19 cells (Homo sapiens, UniProt P07477); conditions: protein PRSS1 Trypsin-1, P07477
[5] = molecular target: PF-7802-labelled proteins in ARPE-19 cells (Homo sapiens, UniProt P10412); conditions: P10412 HIST1H1E Histone H1.4
[6] = molecular target: PF-7802-labelled proteins in ARPE-19 cells (Homo sapiens, UniProt P13164); conditions: protein IFITM1 Interferon-induced transmembrane protein 1 (P13164); one column per replicate
Chain of UniProt P13164 (P13164 whole entry): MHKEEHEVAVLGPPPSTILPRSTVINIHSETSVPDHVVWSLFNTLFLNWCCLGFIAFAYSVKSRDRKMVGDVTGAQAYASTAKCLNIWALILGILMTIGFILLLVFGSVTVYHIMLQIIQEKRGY

[7] = molecular target: PF-7802-labelled proteins in ARPE-19 cells (Homo sapiens, UniProt P16402); conditions: P16402 HIST1H1D Histone H1.3
Chain of UniProt P16402 (P16402 whole entry): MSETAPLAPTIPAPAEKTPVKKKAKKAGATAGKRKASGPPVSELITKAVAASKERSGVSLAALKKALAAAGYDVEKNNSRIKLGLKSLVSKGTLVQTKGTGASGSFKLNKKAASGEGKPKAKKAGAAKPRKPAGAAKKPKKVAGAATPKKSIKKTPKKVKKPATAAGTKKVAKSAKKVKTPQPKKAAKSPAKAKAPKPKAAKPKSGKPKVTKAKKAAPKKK

[8] = molecular target: PF-7802-labelled proteins in ARPE-19 cells (Homo sapiens, UniProt P49748)
[9] = molecular target: PF-7802-labelled proteins in ARPE-19 cells (Homo sapiens, UniProt P51659); conditions: protein HSD17B4 Peroxisomal multifunctional enzyme type 2 (P51659); one column per replicate
Chain of UniProt P51659 (P51659 whole entry): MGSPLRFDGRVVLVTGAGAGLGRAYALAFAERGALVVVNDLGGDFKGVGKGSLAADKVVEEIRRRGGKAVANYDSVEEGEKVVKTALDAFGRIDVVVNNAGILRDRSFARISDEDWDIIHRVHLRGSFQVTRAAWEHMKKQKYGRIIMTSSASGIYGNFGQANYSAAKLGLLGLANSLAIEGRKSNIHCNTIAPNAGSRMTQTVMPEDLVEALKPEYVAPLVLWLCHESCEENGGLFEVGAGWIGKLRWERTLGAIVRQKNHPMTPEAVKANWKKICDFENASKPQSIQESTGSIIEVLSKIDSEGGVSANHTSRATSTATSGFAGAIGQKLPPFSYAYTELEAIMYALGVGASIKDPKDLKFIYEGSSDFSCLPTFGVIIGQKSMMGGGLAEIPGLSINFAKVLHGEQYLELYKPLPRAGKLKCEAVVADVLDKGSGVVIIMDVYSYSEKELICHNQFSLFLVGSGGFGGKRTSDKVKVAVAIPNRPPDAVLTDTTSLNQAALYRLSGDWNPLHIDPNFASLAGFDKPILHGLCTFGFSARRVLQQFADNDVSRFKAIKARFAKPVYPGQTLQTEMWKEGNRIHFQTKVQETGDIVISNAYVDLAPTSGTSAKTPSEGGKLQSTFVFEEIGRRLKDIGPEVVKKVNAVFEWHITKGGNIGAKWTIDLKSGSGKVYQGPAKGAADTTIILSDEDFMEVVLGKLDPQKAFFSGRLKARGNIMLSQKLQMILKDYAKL

[10] = molecular target: PF-7802-labelled proteins in ARPE-19 cells (Homo sapiens, UniProt P62805)
[11] = molecular target: PF-7802-labelled proteins in ARPE-19 cells (Homo sapiens, UniProt P63096); conditions: P63096 GNAI1 Guanine nucleotide-binding protein G(i) subunit alpha-1
Chain of UniProt P63096 (P63096 whole entry): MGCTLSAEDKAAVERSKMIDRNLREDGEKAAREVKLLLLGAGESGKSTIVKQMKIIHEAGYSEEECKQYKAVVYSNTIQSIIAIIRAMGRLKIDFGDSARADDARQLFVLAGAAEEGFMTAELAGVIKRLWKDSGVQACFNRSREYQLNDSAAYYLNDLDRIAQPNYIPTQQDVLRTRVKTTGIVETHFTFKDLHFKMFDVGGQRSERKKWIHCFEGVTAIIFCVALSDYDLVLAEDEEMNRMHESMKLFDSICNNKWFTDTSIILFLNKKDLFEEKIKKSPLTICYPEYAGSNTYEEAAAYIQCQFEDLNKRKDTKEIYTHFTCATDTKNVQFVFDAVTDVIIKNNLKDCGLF

[12] = molecular target: PF-7802-labelled proteins in ARPE-19 cells (Homo sapiens, UniProt Q07954); conditions: protein LRP1 Prolow-density lipoprotein receptor-related protein 1 (Q07954); replicates in separate columns
[13] = molecular target: PF-7802-labelled proteins in ARPE-19 cells (Homo sapiens, UniProt Q7L7L0); conditions: protein HIST3H2A Histone H2A type 3 (Q7L7L0); one column per replicate
[14] = molecular target: PF-7802-labelled proteins in ARPE-19 cells (Homo sapiens, UniProt Q9NRV9); conditions: Q9NRV9 HEBP1 Heme-binding protein 1
Chain of UniProt Q9NRV9 (Q9NRV9 whole entry): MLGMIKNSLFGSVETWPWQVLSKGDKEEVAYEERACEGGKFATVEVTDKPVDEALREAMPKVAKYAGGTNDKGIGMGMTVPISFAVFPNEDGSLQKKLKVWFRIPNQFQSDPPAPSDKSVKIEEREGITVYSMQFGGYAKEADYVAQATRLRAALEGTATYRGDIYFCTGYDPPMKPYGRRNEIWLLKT

[15] = molecular target: PF-7802-labelled proteins in ARPE-19 cells (Bos taurus, UniProt P02668); conditions: protein no description (P02668); replicates in separate columns
[16] = molecular target: PF-7802-labelled proteins in ARPE-19 cells (Homo sapiens, UniProt P02511); conditions: protein CRYAB Alpha-crystallin B chain (P02511)
Chain of UniProt P02511 (P02511 whole entry): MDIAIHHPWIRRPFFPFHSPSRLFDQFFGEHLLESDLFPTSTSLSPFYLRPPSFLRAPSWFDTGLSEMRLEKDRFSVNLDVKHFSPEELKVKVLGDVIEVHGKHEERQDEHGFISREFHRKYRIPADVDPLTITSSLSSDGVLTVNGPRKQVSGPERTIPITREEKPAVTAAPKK

[17] = molecular target: PF-7802-labelled proteins in ARPE-19 cells (Homo sapiens, UniProt P06737); conditions: protein PYGL Glycogen phosphorylase, liver form, P06737
Chain of UniProt P06737 (P06737 whole entry): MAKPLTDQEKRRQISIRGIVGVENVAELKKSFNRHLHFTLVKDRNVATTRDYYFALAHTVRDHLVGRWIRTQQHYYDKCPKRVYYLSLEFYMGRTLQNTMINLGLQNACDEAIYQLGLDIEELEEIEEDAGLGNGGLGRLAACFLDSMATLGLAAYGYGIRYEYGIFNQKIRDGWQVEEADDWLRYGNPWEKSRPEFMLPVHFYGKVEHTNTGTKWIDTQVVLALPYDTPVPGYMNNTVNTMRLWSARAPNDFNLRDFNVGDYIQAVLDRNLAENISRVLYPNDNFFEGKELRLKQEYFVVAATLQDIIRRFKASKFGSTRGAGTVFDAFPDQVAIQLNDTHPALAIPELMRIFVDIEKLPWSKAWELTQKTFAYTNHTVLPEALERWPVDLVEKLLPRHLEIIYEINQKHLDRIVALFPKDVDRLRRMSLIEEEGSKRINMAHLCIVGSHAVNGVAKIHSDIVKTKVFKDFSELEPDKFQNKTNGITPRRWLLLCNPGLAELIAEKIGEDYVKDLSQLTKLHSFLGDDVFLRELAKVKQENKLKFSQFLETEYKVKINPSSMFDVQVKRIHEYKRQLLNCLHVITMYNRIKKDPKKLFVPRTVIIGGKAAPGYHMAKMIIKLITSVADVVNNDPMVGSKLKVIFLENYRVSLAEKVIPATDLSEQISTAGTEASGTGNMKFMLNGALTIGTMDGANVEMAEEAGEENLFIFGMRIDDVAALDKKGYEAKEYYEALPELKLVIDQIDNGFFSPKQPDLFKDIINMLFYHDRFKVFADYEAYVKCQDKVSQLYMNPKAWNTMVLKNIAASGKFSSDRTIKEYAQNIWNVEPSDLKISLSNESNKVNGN

[18] = molecular target: PF-7802-labelled proteins in ARPE-19 cells (Homo sapiens, UniProt P07910); conditions: protein HNRNPC Heterogeneous nuclear ribonucleoproteins C1/C2 (P07910); one column per replicate
Chain of UniProt P07910 (P07910 whole entry): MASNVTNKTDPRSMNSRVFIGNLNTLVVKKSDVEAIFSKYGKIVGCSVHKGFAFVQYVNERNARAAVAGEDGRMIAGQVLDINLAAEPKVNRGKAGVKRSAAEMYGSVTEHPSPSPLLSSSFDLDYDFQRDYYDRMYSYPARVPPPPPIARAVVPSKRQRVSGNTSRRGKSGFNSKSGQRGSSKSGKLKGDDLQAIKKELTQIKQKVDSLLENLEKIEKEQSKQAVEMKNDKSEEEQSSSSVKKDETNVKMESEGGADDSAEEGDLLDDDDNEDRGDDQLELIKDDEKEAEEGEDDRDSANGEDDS

[19] = molecular target: PF-7802-labelled proteins in ARPE-19 cells (Homo sapiens, UniProt P40925); conditions: protein MDH1 Malate dehydrogenase, cytoplasmic (P40925); replicates in separate columns
Chain of UniProt P40925 (P40925 whole entry): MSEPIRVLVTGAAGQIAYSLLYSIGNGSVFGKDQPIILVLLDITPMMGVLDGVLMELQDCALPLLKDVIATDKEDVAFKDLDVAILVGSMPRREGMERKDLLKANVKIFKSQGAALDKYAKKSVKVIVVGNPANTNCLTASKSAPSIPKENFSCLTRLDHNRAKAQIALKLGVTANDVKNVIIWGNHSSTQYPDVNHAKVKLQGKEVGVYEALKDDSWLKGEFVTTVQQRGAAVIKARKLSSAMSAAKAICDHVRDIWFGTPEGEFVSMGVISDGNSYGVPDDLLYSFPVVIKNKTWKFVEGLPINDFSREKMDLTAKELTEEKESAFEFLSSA

[20] = molecular target: PF-7802-labelled proteins in ARPE-19 cells (Homo sapiens, UniProt P57721); conditions: protein PCBP3 Poly(rC)-binding protein 3 (P57721); replicates in separate columns
Chain of UniProt P57721 (P57721 whole entry): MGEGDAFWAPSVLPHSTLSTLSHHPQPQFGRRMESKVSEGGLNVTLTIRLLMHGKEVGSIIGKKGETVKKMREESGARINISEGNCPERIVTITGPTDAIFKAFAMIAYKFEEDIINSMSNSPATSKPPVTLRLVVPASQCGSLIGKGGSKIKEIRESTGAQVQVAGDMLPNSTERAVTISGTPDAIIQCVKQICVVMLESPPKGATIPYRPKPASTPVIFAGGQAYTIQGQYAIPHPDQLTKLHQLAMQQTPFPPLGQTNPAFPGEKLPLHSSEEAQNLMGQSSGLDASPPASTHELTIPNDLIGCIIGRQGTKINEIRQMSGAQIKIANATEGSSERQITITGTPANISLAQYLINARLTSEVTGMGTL

[21] = molecular target: PF-7802-labelled proteins in ARPE-19 cells (Homo sapiens, UniProt P62851); conditions: protein RPS25 40S ribosomal protein S25, P62851
[22] = molecular target: PF-7802-labelled proteins in ARPE-19 cells (Homo sapiens, UniProt P78386); conditions: protein KRT85 Keratin, type II cuticular Hb5 (P78386); replicates R1-R4 in separate columns
Chain of UniProt P78386 (P78386 whole entry): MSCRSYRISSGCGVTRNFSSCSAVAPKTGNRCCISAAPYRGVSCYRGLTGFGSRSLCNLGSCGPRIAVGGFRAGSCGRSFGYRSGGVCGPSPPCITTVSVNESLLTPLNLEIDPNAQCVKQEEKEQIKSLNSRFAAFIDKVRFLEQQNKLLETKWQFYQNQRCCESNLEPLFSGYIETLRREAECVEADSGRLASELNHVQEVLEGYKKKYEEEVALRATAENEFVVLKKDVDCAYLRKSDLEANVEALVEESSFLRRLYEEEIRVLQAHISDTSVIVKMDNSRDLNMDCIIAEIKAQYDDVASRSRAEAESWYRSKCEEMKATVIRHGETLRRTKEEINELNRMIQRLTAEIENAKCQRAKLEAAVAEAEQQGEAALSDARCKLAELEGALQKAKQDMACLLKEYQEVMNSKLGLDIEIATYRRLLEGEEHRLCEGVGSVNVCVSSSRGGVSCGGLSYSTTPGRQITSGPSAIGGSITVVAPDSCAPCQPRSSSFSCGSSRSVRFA

[23] = molecular target: PF-7802-labelled proteins in ARPE-19 cells (Homo sapiens, UniProt Q14764); conditions: protein MVP Major vault protein (Q14764); replicates in separate columns
[24] = molecular target: PF-7802-labelled proteins in ARPE-19 cells (Homo sapiens, UniProt Q8NBS9); conditions: TXNDC5 Thioredoxin domain-containing protein 5 (Q8NBS9)
[25] = molecular target: PF-7802-labelled proteins in ARPE-19 cells (Homo sapiens, UniProt Q96AG4); conditions: protein LRRC59 Leucine-rich repeat-containing protein 59 (Q96AG4); replicates in separate columns
Chain of UniProt Q96AG4 (Q96AG4 whole entry): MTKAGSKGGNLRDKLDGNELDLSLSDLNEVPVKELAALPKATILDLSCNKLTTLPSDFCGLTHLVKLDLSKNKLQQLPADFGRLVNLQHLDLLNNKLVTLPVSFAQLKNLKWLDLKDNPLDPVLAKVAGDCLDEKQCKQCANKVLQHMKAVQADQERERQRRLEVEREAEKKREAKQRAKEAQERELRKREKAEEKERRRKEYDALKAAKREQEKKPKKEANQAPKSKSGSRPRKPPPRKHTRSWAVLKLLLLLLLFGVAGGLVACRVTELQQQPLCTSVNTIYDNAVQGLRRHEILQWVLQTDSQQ

[26] = molecular target: PF-7802-labelled proteins in ARPE-19 cells (Homo sapiens, UniProt Q9P0J1); conditions: protein PDP1 [Pyruvate dehydrogenase [acetyl-transferring]]-phosphatase 1, mitochondrial (Q9P0J1); replicates in separate columns

## CNC1CCN(C(=O)C[C@@H](Cc2ccccc2)C(=O)N[C@@H](CSC)C(=O)N[C@@H](CC2CCCCC2)[C@@H](O)C(=O)OC(C)C)CC1 [CP-108671, reference compound]
[1]
  Median SILAC Ratio (Heavy/Light): 1.228
[2]
  Median SILAC Ratio (Heavy/Light): 1.019 and 0.923
[3]; P06576 ATP5B ATP synthase subunit beta, mitochondrial
  SILAC ratio (DMSO/CP-108671): 1.01
[3]; protein ATP5B ATP synthase subunit beta, mitochondrial (P06576)
  Median SILAC Ratio (Heavy/Light): 0.9647 and 1.021
[4]
  Median SILAC Ratio (Heavy/Light): 0.7987
[5]
  SILAC ratio (DMSO/CP-108671): 0.89
[6]
  Median SILAC Ratio (Heavy/Light): 0.4522
[7]
  SILAC ratio (DMSO/CP-108671): 0.89
[8]; P49748 ACADVL Very long-chain specific acyl-CoA dehydrogenase, mitochondrial
  SILAC ratio (DMSO/CP-108671): 0.95
[8]; protein ACADVL Very long-chain specific acyl-CoA dehydrogenase, mitochondrial (P49748)
  Median SILAC Ratio (Heavy/Light): 1.64 and 0.8526
[9]
  Median SILAC Ratio (Heavy/Light): 1.043
[10]; P62805 HIST4H4 Histone H4
  SILAC ratio (DMSO/CP-108671): 0.96
[10]; protein HIST4H4 Histone H4 (P62805), one column per replicate
  Median SILAC Ratio (Heavy/Light): 1.0412 and 0.9304
[11]
  SILAC ratio (DMSO/CP-108671): 0.86
[12]
  Median SILAC Ratio (Heavy/Light): 0.6969
[13]
  Median SILAC Ratio (Heavy/Light): 0.834
[14]
  SILAC ratio (DMSO/CP-108671): 0.56

## Cc1cc([C@H]2C[C@H]3[C@@H](C)SC(N)=N[C@@]3(c3ccc(F)cc3F)CO2)on1 [PF-9283]
[15]
  Median SILAC Ratio (Heavy/Light): 14.9263
[16]
  Median SILAC Ratio (Heavy/Light): 1.448
[17]
  Median SILAC Ratio (Heavy/Light): 1.2659
[18]
  Median SILAC Ratio (Heavy/Light): 1.289 and 2.223
[19]
  Median SILAC Ratio (Heavy/Light): 1.406 and 1.203
[20]
  Median SILAC Ratio (Heavy/Light): 3.513
[21]
  Median SILAC Ratio (Heavy/Light): 1.354
[22]
  Median SILAC Ratio (Heavy/Light): 126.519
[23]
  Median SILAC Ratio (Heavy/Light): 1.786
[24]
  Median SILAC Ratio (Heavy/Light): 1.396 and 0.8034
[25]
  Median SILAC Ratio (Heavy/Light): 1.355
[26]
  Median SILAC Ratio (Heavy/Light): 1.312
